Test results as given in PubChem BioAssay AID1030 (National Center for Advancing Translational Sciences (NCATS), 2008).
About 16,000 (7.3%) of roughly 220,000 compounds were called active. The shares of active, inactive and inconclusive entries below differ from those in the screen. Calls follow the shape of the dose curve; as a rule, active = well fitted inhibition curve with a large enough effect (not every such curve was filed as active); inconclusive = small, poorly fitted or top-dose-only effect, or another doubt; inactive = no such curve, though single readings can be large or run the other way. Potencies of inconclusive entries are left out as doubtful fits.
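For activity, negative = inhibition in this document: plate controls were no enzyme wells and a reference inhibitor.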
Potency is read from the fitted curve at half-maximal effect; tags tell the direction and shape of the fitted curve.

What follows are compounds tested against Aldehyde dehydrogenase 1A1 (Homo sapiens) (UniProt P00352) (assay: qHTS Assay for Inhibitors of Aldehyde Dehydrogenase 1 (ALDH1A1)). Conditions: Purified ALDH1A1, NADH fluorescence, propionaldehyde substrate; series mostly up to 75.3 µM.
Chain of UniProt P00352 (P00352 whole entry, looked up): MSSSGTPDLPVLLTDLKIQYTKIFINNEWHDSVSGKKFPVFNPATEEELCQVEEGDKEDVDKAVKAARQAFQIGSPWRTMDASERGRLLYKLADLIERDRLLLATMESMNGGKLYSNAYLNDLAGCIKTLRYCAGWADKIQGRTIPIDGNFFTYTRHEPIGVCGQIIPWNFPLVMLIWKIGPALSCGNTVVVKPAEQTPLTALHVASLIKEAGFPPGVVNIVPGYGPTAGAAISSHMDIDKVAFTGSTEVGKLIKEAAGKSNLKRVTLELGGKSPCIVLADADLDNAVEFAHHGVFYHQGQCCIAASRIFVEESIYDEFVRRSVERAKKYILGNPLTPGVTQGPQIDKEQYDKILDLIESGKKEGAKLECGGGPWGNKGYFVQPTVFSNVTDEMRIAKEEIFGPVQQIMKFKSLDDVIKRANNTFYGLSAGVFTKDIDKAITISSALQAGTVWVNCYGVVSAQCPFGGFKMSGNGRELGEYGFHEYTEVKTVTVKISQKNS
`CCn1c(SCC(=O)Nc2nonc2C)nnc1-c1ccco1` was tested, and the Potency was active: 14.1 µM.
For `Cc1cc(=O)oc2c(CN3CCC(C)CC3)c(O)c(Cl)cc12`, the Potency was inconclusive [inhibitor, partial curve].
For `O=C(c1ccco1)N(CCC(c1ccccc1)c1ccco1)Cc1ccc(F)cc1` (stereo not drawn), the Potency was active: 14.1 µM.
With `N#Cc1c(-c2cccs2)cc(-c2ccccn2)nc1N` the Potency was inconclusive [inhibitor, full curve].
In the case of `O=C(NCCc1cn2ccsc2n1)c1cccs1`, the Potency is reported as inconclusive [inhibitor, single point].
`Cc1ccc2c(c1)nnn2C1CCN(S(=O)(=O)c2cccc(S(=O)(=O)N(C)C)c2)CC1` was tested, and the Potency was inconclusive [inhibitor, full curve].
For `COc1ccc(-n2nnc3c(=O)n(CC(=O)N4CCCc5ccccc54)cnc32)cc1`, the Potency was inconclusive [inhibitor, single point].
`COC(=O)C1(C)NC(=O)c2ccccc2N1` (stereo not drawn) was tested, and the Potency was inconclusive [inhibitor, partial curve].
For `O=C(/C=C/c1ccco1)c1ccc(NC(=O)C23CC4CC(CC(C4)C2)C3)cc1`, the Potency was active: 25.1 µM.
`Clc1ccc(-c2nnc(-c3ccco3)o2)cc1` was tested, and the Potency was inconclusive [inhibitor, single point].
For `CCOC(=O)c1sc(NC(=O)CSc2n[nH]c(-c3ccccc3)n2)c(C#N)c1C`, the Potency was active: 2.82 µM.
For `Cc1cc(=O)oc2cc(OC(C)C(=O)N3CCCc4ccccc43)ccc12` (stereo not drawn), the Potency was inconclusive [inhibitor, single point].
`Oc1ccc(Nc2nc3ccccc3nc2Nc2ccc(O)cc2)cc1` was tested, and the Potency was inconclusive [inhibitor, single point].
For `Cc1ccc(C(=O)NCCCNc2ccccc2[N+](=O)[O-])cc1`, the Potency was active: 2.24 µM.
`O=C(NC(NC(=S)Nc1ccc(Cl)cc1Cl)C(Cl)(Cl)Cl)c1cccc([N+](=O)[O-])c1` (stereo not drawn) was tested, and the Potency was active: 17.8 µM.
In the case of `O=C(Nc1nc(=S)ss1)c1ccc(Cl)cc1Cl`, the Potency is reported as active: 6.31 µM.
With `COc1ccc(OC)c2c(C)cc(N3CCN(C(=O)c4ccc(Cl)cc4)CC3)nc12` the Potency was inconclusive [inhibitor, single point].
For `Oc1c(N=Nc2ccccn2)ccc2ccccc12`, the Potency was “inactive”.
For `CCOC(=O)c1cc(-c2cccc([N+](=O)[O-])c2)nc2[nH]c(=O)[nH]c(=O)c12`, the Potency was active: 14.1 µM.
For `Cc1ccc(NC(=O)COC(=O)c2ccc3c(c2)OCO3)c(C)c1`, the Potency was “inactive”.
For `Cn1c(=O)c2c(nc(N3CCc4ccccc4C3)n2C)n(C)c1=O`, the Potency was inconclusive [inhibitor, single point].
In the case of `CC(C)C(=O)N1CCN(c2ccc(NC(=O)c3ccc4c(c3)OCCO4)cc2Cl)CC1`, the Potency is reported as inconclusive [inhibitor, single point].
For `C/C(=N\N(c1ccccc1)c1ccccc1)c1ccco1`, the Potency was inconclusive [inhibitor, single point].
`CCOC(=O)c1ccccc1NC1CC(=O)N(c2ccccc2C)C1=O` (stereo not drawn) was tested, and the Potency was inconclusive [inhibitor, partial curve].
In the case of `CN(c1ccccc1)S(=O)(=O)c1ccc(NC(=O)c2ccco2)cc1`, the Potency is reported as inconclusive [inhibitor, full curve, poor fit].
`CCS(=O)(=O)n1nc(-c2ccc(Cl)cc2)nc1SC` was tested, and the Potency was inconclusive [inhibitor, partial curve].
With `CCN(CC)S(=O)(=O)c1ccc(C)c(NC(=O)CSc2nc3ccccc3[nH]2)c1` the Potency was inconclusive [inhibitor, single point].
In the case of `Nc1ccccc1Nc1ccncc1[N+](=O)[O-]`, the Potency is reported as inconclusive [inhibitor, single point].
`COc1cccc2oc(SC)cc(=O)c12` was tested, and the Potency was inconclusive [inhibitor, single point].
With `CCOC(=O)C1CCN(c2cc(C)nc3cc(-c4cccc(F)c4)nn23)CC1` the Potency was inconclusive [inhibitor, partial curve].
For `CC(=O)c1ccccc1NCC(=O)Nc1ccc(C)cc1`, the Potency was active: 12.6 µM.
For `CSc1nnc(-c2ccco2)n1-c1ccccc1`, the Potency was inconclusive [inhibitor, single point].
`Cc1ccccc1NC(=O)Cc1nnc(SCC(=O)c2ccc(Br)cc2)n1C` was tested, and the Potency was inconclusive [inhibitor, partial curve].
`CN(Cc1ccccc1)Cc1nc2c(c(=O)n(C)c(=O)n2C)n1CCCc1ccccc1` was tested, and the Potency was active: 0.708 µM.
`CCCn1cc(SCC(=O)NCc2ccc3c(c2)OCO3)c2ccccc21` was tested, and the Potency was inconclusive [inhibitor, single point].
For `Cc1sc(NC(=O)Cn2[nH]c(=O)c3ccccc3c2=O)nc1-c1ccccc1`, the Potency was inconclusive [inhibitor, single point].
For `C[C@@H]1OC2C3=C(C(=O)[C@H]4O[C@@H]4[C@H]3O)[C@@H]1[C@H]1[C@H](C)OC=C3[C@H](O)[C@H]4O[C@H]4/C(=N\OCc4ccccc4)[C@@]321`, the activity, negative = inhibition was inactive: -0.536% [at 13.5 µM].
In the case of `CC(NC(=O)Nc1ccc(Cl)c(Cl)c1)C(c1ccccc1)N1CCOCC1` (stereo not drawn), the Potency is reported as inconclusive [inhibitor, single point].
For `Cc1ccc(S(=O)(=O)N2CCC(=O)N(C(COCc3cccc(C(F)(F)F)c3)C(C)C)CC2)cc1` (stereo not drawn), the Potency was inconclusive [inhibitor, single point].
With `CN1CCN(c2nc(-c3ccoc3)nc3ccccc23)CC1` the Potency was “inactive”.
In the case of `CC(=O)Nc1cccc(-c2cn3ccccc3n2)c1`, the Potency is reported as inconclusive [inhibitor, single point].
For `CCOc1ccc(-n2c(N)c(-c3nc4ccccc4n3C)c3nc4ccccc4nc32)cc1`, the Potency was “inactive”.
In the case of `O=c1[nH][nH]c(-c2ccccc2O)c1C(C[N+](=O)[O-])c1ccc(Br)cc1` (stereo not drawn), the Potency is reported as inconclusive [inhibitor, partial curve].
`CCn1c2ccccc2c2cc(CN3CCN(Cc4cc(OC)ccc4O)CC3)ccc21` was tested, and the Potency was active: 35.5 µM.
For `O=C(Nc1ccc(N2CCOCC2)cc1)c1cccc(S(=O)(=O)N2CCCC2)c1`, the Potency was inconclusive [inhibitor, single point].
`COC(=O)C1=C(C)N(C)C(=S)NC1c1cc(OC)ccc1OC` (stereo not drawn) was tested, and the Potency was “inactive”.
For `CN1c2ccccc2C(C)(C)C12CC(c1ccc(S(=O)(=O)N3CCCCC3)cc1)=NO2` (stereo not drawn), the Potency was “inactive”.
With `CN(C)CC(C)(C)CNS(=O)(=O)c1ccc(Cl)cc1` the Potency was “inactive”.
`CC(=O)c1nc2ccccc2n1S(=O)(=O)c1ccc(C)cc1` was tested, and the Potency was inconclusive [inhibitor, partial curve].
With `COc1ccc(C(=O)CC(=O)c2c(O)cc(OC)cc2OC)cc1` the activity, negative = inhibition was inactive: 5.08% [at 13.5 µM].
In the case of `CC(C)N(CCC(=O)c1ccc2ccccc2c1)Cc1ccccc1`, the Potency is reported as active: 0.282 µM.
With `CC(C)N1C(=O)C(Cc2nc3ccccc3c(=O)n2-c2ccccc2)c2ccccc21` (stereo not drawn) the Potency was inconclusive [inhibitor, full curve].
For `COc1ccc(CNC(=O)CN(Cc2ccc(OC)cc2)C(=O)c2csnn2)cc1`, the Potency was active: 2.24 µM.
With `COCCNC(=S)N=Nc1c(O)[nH]c2ccc([N+](=O)[O-])cc12` the Potency was inconclusive [inhibitor, partial curve].
`CCOc1ccccc1C1C2=C(COC2=O)Nc2cc3c(cc21)OCO3` (stereo not drawn) was tested, and the Potency was inconclusive [inhibitor, single point].
For `C=CCNC(=O)C1(c2ccccc2)CC1(Cl)Cl` (stereo not drawn), the Potency was “inactive”.
With `CCNC(=S)N1CCc2cc(OC)c(OC)cc2C1COc1ccccc1OC` (stereo not drawn) the Potency was “inactive”.
For `COc1cccc(NC(=O)Cc2nc(-c3ccccc3)sc2-c2ccc(C)cc2)c1`, the Potency was active: 25.1 µM.
In the case of `C/C(CS(=O)(=O)c1ccccc1)=N\O`, the Potency is reported as “inactive”.
In the case of `COc1ccc(C(=O)N2CCC3(CCCN(c4cccc(-c5ccccc5)c4)C3)CC2)cc1`, the Potency is reported as active: 22.4 µM.
With `O=C(Nc1ccc(F)c(Cl)c1)c1ccc2c(=O)n3c(nc2c1)CCCCC3` the Potency was active: 25.1 µM.
With `COc1ccccc1NC(=S)N(Cc1ccc(C(=O)O)cc1)Cc1ccc(OC)c(OC)c1` the Potency was “inactive”.
With `S=C(NCC(c1ccco1)N1CCCC1)Nc1ccccc1` (stereo not drawn) the Potency was “inactive”.
`Cc1ccc(C(O)(C(=O)NN(C(=O)c2ccccc2)c2ccccc2)c2ccc(C)cc2)cc1` was tested, and the Potency was “inactive”.
With `COc1ccc(N2C(=O)c3ccccc3NC23CCC(C)CC3)cc1` (stereo not drawn) the Potency was inconclusive [inhibitor, single point].
For `Cc1nc(CSc2nsc(/C=C/N(C)C)c2C#N)cs1`, the Potency was active: 6.31 µM.
In the case of `COc1ccc(-n2cc(C(=O)c3ccccc3O)cn2)cc1`, the Potency is reported as inconclusive [inhibitor, single point].
In the case of `Cc1ccccc1N1CCN(c2ncnc3c2cnn3Cc2ccc(Cl)cc2)CC1`, the Potency is reported as inconclusive [inhibitor, single point].
In the case of `COC(=O)CN1C(=O)C(O)(CC(=O)c2cccc(Br)c2)c2ccccc21` (stereo not drawn), the Potency is reported as active: 0.562 µM.
With `O=C(Nc1ccc(O)cc1)C1CC=CCC1` (stereo not drawn) the Potency was inconclusive [inhibitor, single point].
In the case of `COc1cccc(CC2(CO)CCN(Cc3cccn3-c3cccnc3)CC2)c1`, the Potency is reported as “inactive”.
`COCCn1c(=NC(=O)c2ccc3c(c2)OCO3)c(C#N)cc2c(=O)n3cccc(C)c3nc21` was tested, and the Potency was inconclusive [inhibitor, partial curve].
In the case of `CCN(CC(=O)Nc1c(F)cccc1F)C(=O)COc1ccc2c(C)cc(=O)oc2c1`, the Potency is reported as inconclusive [inhibitor, partial curve].
